# Measurements as given in the supplement of paper PMC5499739.
# The full ranking holds about 16,000 sequences; the median of “Z-score” is about -0.37, and the highest 2% start at about 3.2. This is one part of the list.
# Tested on: RBM10 RRM1-ZnF (GST-tagged construct)
# Experiment: RNAcompete 7-mer binding Z-score; higher = stronger binding preference
# Method: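 RNAcompete: 20 pmol GST-tagged RBM10 RNA-binding constructs were incubated with a designed RNA pool of about 241,000 sequences up to 41 nt (1.5 nmol) on glutathione beads for 30 min at 4 °C and washed. Bound RNAs were identified by microarray hybridisation. Each RNA 7-mer is scored by a one-sided Z-score of its enrichment, computed over probes that contain the 7-mer within longer pool sequences.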
row,Sequence,RNAcompete 7-mer binding Z-score
1,GCGGCCA,-0.126
2,UGUAGCA,-0.106
3,UCCCGUG,-0.246
4,UUACCGU,-0.772
5,UGAACAG,0.365
6,AUAGGAC,0.888
7,UAAUGUC,-0.35
8,UCAUCUC,-0.815
9,CAUACCU,-0.792
10,GCCUUCC,-0.639
11,GGCGGGG,3.96
12,UUCAUUG,-0.539
13,CCUAAGA,-0.48
14,UCGUCAG,-0.37
15,GAUCUCC,-0.86
16,GCGCCAU,-0.49
17,UCCGGUC,-0.617
18,UCACAUU,-0.691
19,CGAUGUA,-0.00571
20,CCUUUAU,-0.893
21,GCUAGGA,0.92
22,GUUCAAG,-0.116
23,CGAGAGC,-0.0869

row,Sequence,RNAcompete 7-mer binding Z-score
1,GCUCCCC,0.0105
2,UCCCGAU,-0.873
3,CCCUCCC,-0.21
4,UGUACCC,-0.617
5,GGCACUC,-0.168
6,GUAUCCU,-0.72
7,UUUGACG,-0.522
8,CGCAGAG,0.335
9,UAGCGAC,-0.149
10,UACCGGA,-0.0285
11,AGCCCCG,-0.454
12,CGUCAGG,0.378
13,UGCGUAG,0.192
14,UACGGGU,1.94
15,UUAGUCC,-0.591
16,AUCCCCC,-0.461
17,CUCUUAG,-0.617
18,UGAGAAG,1.04
19,GCAUUCA,-0.396
20,AAAGUUU,-0.415
21,GAAACUA,-0.373
22,GGCACAU,0.163
23,UACUAUG,-0.366

row,Sequence,RNAcompete 7-mer binding Z-score
1,ACAACUC,-0.798
2,AAAUGCU,-0.36
3,GCAAUUA,-0.659
4,GUGCACA,0.121
5,UCUGGUU,-0.155
6,GUCCGAA,-0.633
7,AUUGAGG,1.63
8,UACAUAG,-0.191
9,GGUCGGC,0.699
10,CAAAACA,-0.451
11,ACACACC,-0.503
12,AGACCCC,-0.88
13,GUAAAAU,0.0203
14,CUCUUUA,-0.837
15,UACGAUG,0.115
16,UGUGCGA,0.235
17,GCAUGAU,-0.0479
18,CUCGCGU,-0.522
19,ACGCAGG,0.69
20,GGACUUU,-0.139
21,AUGAGGG,3.84
22,UCCCCGA,-0.36
23,AGAGCAC,-0.623

row,Sequence,RNAcompete 7-mer binding Z-score
1,UUCGGUA,-0.282
2,AGCCAGC,-0.396
3,AUUAGGC,0.218
4,GGAGUCC,0.738
5,UAUCUGG,-0.337
6,CGGGUGU,2.14
7,GACCGAG,-0.21
8,GCAUACU,-0.694
9,UAAACUU,-0.633
10,CACUACC,-0.552
11,UAGUUGG,1.32
12,UAGGUGA,2.48
13,CCCAGAG,0.0983
14,AACUAAG,-0.301
15,CCAUUGA,-0.642
16,UGUGUAG,0.797
17,GGUGGAA,3.81
18,AUCCCAC,-0.509
19,CCGGCGG,0.261
20,CUAUCCC,-0.772
21,CCGGAGG,0.729
22,UCCACAG,-0.522
23,GUGUUGU,0.368
